Source: PubChem BioAssay AID651820 (National Center for Advancing Translational Sciences (NCATS), 2012)
Out of some 340,000 compounds screened, about 12,000 (3.5%) were called active. The inconclusive results got no clear call from the source; some entries with a clear call stand among them for comparison. The call rests on the fitted dose curve; in most records, active means well fitted inhibition curve with a large enough effect; inconclusive means small, poorly fitted or top-dose-only effect, or another doubt; inactive means no such curve, though single readings can be large or run the other way. No potency is given beside an inconclusive call; the fits are too rough.

Assay: qHTS Assay for Inhibitors of Hepatitis C Virus (HCV)
Details: Huh7.5.1 HCVcc-Cre (HCVcc is cell-culture hepatitis C virus) infection, luciferase reporter, 44 h; activity change, negative = inhibition: at 41.8 µM (top of the series)
Outline: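 1,000 cells/well; 4 h culture; + compound; + HCVcc-Cre (~0.5 moi); 44 h; luciferase substrate, RT 15 min; read 15 sec.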
On the % scale 0 is the no-effect control and ±100 the full control effect; potency means the concentration at half of the fitted maximal effect; tags describe the fitted curve by direction and shape.

Row | SMILES | activity change, negative = inhibition | Potency
1 | CC1=Nc2ccc(C)c3nc(C)cc(c23)N1c1ccc(C)cc1 | inactive: -20.7% | 
2 | CCCCCn1c(=O)c(C(=O)NCc2ccncc2)c(O)c2ccccc21 |  | inconclusive [inhibitor, single point]
3 | COc1ccc(-n2nc(C(=O)NCC(=O)Nc3cc(Cl)c(OC)cc3OC)c3ccccc3c2=O)cc1 |  | active: 31.6 µM
4 | c1ccc(C(c2ccccc2)c2noc(CN3CCC(c4ccncc4)CC3)n2)cc1 | inactive: -0.14% | 
5 | CCOC(=O)c1c(NC(=O)Cn2nnc3ccccc32)sc2c1CCC(C)C2 (stereo not drawn) |  | active: 1.58 µM
6 | COc1cccc(-c2cc(C(=O)Nc3nc4ccccc4s3)c3ccccc3n2)c1 | inconclusive: -31.4% [inhibitor] | 
7 | CCC1CCCCN1CCCNC(=O)c1ccc2nc(N3CCC(C)CC3)sc2c1 (stereo not drawn) |  | inconclusive [inhibitor, partial curve]
8 | CN(c1ccccc1)C1CCCCC1NS(=O)(=O)c1ccc(Cl)cc1 (stereo not drawn) |  | inconclusive [inhibitor, single point]
9 | CCOC(=O)c1nnn(-c2nonc2N)c1COc1ccccc1 |  | inconclusive [inhibitor, single point]
10 | CCOC(=O)c1nn(-c2cccc(C)c2)cc1C(=O)c1ccccc1 |  | inconclusive [inhibitor, single point]
11 | Cc1cc(NC(=O)c2ccc(Cl)cc2Cl)n(-c2ccccc2)n1 |  | inconclusive [inhibitor, partial curve, poor fit]
12 | CCOC(=O)c1c(NC(=O)c2cccc(N3C(=O)CCC3=O)c2)sc2c1CCN(CC)C2 |  | inconclusive [inhibitor, partial curve]
13 | CSc1cccc(CN2CCC(CO)(Cc3cccc(C(F)(F)F)c3)CC2)c1 |  | inconclusive [inhibitor, single point]
14 | CCOC(=O)c1sc2nc(CN3CCN(c4cccc(C(F)(F)F)c4)CC3)[nH]c(=O)c2c1C |  | inconclusive [inhibitor, single point]
15 | COc1cc(N=Nc2ccc(C)cc2S(N)(=O)=O)c(C)cc1N |  | active: 25.1 µM
16 | CCN(C(=O)COC(=O)c1cc2c(s1)CCCC2)c1c(N)n(Cc2ccccc2)c(=O)[nH]c1=O |  | inconclusive [inhibitor, partial curve, poor fit]
17 | O=C(Cn1c(=O)n(Cc2ccccc2)c(=O)c2cc(Cl)ccc21)NCC1CCCO1 (stereo not drawn) |  | inconclusive [inhibitor, partial curve]
18 | COc1ccc(-c2cc(C(=O)Nc3ccc(C(N)=O)cc3)c3ccccc3n2)cc1OC |  | inconclusive [inhibitor, single point]
